Reference: publication PMC3898958
Results are given in words; binding and its absence hold for the method and conditions named. In cells and extracts the contact can be indirect. Some results given as binding are weak or reduced against the parent protein; the word gives no strength. Tags and fused reporters may be left off the sequences shown.

The chains behind the UniProt entries cited, without tags or fusion partners. Where a name states a change or a piece, a line headed by the entry shows the natural chain unless it says otherwise. A line that says so, or that is headed by a name, gives the form on record, which may keep a tag or linker.
UniProt P40479: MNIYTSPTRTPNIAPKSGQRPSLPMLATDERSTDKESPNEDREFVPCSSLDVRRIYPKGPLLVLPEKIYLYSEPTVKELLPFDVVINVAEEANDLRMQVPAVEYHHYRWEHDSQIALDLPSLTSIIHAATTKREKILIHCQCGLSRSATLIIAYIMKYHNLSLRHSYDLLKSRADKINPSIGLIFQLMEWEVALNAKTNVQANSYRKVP
Recombinant Sdp1^IAYATA-GST (plasmid pETGEXCT) (P40479, form named): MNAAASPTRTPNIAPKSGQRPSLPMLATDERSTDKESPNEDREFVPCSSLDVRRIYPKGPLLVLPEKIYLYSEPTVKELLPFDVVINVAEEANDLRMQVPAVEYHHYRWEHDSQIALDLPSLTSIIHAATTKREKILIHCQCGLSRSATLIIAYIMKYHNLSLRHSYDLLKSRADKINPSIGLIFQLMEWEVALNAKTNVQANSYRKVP

T1: GST-Mlp1 (plasmid pEG(KG)-Mlp1) (S. cerevisiae) (UniProt P36005)
T1 sequence: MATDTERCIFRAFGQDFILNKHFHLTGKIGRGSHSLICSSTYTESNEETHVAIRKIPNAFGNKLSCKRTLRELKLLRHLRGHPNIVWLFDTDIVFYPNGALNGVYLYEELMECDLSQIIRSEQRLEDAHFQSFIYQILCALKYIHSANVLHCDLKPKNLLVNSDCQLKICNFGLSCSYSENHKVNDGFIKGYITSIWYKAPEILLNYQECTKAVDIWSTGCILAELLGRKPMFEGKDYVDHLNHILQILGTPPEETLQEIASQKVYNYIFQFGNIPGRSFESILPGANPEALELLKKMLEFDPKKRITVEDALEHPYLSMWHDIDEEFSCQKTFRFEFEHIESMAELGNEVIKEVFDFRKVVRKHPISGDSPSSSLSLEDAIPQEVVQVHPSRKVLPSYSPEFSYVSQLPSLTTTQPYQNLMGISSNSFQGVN

T2: GST-Slt2 (plasmid pEG(KG)-SLT2) (S. cerevisiae) (UniProt Q00772)
T2 sequence: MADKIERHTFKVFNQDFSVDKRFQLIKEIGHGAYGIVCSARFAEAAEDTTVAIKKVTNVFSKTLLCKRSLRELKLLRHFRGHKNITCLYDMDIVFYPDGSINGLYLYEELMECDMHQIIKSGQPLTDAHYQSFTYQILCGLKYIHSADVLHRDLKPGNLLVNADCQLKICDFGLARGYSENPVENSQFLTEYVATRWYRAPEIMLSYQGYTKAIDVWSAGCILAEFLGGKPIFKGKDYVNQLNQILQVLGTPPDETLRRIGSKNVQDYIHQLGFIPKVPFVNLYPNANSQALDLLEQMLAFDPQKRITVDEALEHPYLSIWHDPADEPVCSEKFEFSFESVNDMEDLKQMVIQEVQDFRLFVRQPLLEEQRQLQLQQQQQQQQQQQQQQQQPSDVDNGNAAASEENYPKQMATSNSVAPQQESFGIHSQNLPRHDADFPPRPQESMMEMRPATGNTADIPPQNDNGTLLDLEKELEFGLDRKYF

T3: Pmp1^C158S-GST (strain DP410) (S. pombe) (UniProt O13453)
T3 sequence: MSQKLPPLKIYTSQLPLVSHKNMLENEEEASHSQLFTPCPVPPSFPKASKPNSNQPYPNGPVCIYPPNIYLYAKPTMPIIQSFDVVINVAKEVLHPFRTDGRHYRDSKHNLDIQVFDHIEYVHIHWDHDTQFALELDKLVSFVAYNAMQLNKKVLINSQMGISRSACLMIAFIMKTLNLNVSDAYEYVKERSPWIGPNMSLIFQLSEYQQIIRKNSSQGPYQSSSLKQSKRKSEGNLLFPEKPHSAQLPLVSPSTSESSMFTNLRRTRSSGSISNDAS

T4: Pmp1^C158S-IAYATA-GST (strain DP430) (S. pombe) (UniProt O13453)
T4 sequence: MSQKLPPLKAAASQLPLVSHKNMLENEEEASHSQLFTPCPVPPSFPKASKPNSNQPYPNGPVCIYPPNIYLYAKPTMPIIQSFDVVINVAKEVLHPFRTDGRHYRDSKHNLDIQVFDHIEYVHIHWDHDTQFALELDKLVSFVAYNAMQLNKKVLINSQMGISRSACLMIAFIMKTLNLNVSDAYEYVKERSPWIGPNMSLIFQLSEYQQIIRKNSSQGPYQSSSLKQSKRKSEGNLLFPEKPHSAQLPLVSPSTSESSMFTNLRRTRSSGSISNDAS


Tests used:
[1] = biological target: T1, GST-Mlp1 (plasmid pEG(KG)-Mlp1) (S. cerevisiae); experiment: pull-down; in vivo binding assay: extracts of S. cerevisiae YPH499 co-expressing the GST fusion and Sdp1-Myc, lysis buffer lacking SDS and NP40, glutathione-Sepharose beads for two hours, blots with anti-Myc and anti-GST
[2] = biological target: T2, GST-Slt2 (plasmid pEG(KG)-SLT2) (S. cerevisiae); experiment: as above
[3] = biological target: Recombinant Sdp1^IAYATA-GST (plasmid pETGEXCT) (S. cerevisiae) (UniProt P40479); experiment: pull-down; in vitro binding assay: E. coli extracts with GST-fused Sdp1 mixed with E. coli extracts with the His-tagged protein, glutathione-Sepharose, blots with anti-polyHis and anti-GST
[4] = biological target: Recombinant Sdp1-GST (plasmid pETGEXCT) (S. cerevisiae) (UniProt P40479); experiment: as above
[5] = biological target: T3, Pmp1^C158S-GST (strain DP410) (S. pombe); experiment: pull-down; extracts of S. pombe strains with genomic Pmp1-GST fusions and Pmk1-HA6H, grown in YES to early-log phase; Pmp1-GST recovered on glutathione-agarose beads, extensive washes, blots with anti-HA and anti-GST
[6] = biological target: T4, Pmp1^C158S-IAYATA-GST (strain DP430) (S. pombe); experiment: as above

| Molecule | binding [1] | binding [2] | binding [3] | binding [4] | also measured |
| --- | --- | --- | --- | --- | --- |
| Sdp1-Myc (plasmid YCplac22Sdp1m) (from UniProt P40479 1-209) (enzyme) | binds | binds | – | – | – |
| Sdp1^IAYATA-Myc (plasmid YCplac22Sdp1^IAYATAm) (from UniProt P40479 1-209) (enzyme) | no binding | no binding | – | – | – |
| Recombinant Slt2-His (plasmid pET15B-Slt2-His) (enzyme, UniProt Q00772 1-484) MADKIERHTFKVFNQDFSVDKRFQLIKEIGHGAYGIVCSARFAEAAEDTTVAIKKVTNVFSKTLLCKRSLRELKLLRHFRGHKNITCLYDMDIVFYPDGSINGLYLYEELMECDMHQIIKSGQPLTDAHYQSFTYQILCGLKYIHSADVLHRDLKPGNLLVNADCQLKICDFGLARGYSENPVENSQFLTEYVATRWYRAPEIMLSYQGYTKAIDVWSAGCILAEFLGGKPIFKGKDYVNQLNQILQVLGTPPDETLRRIGSKNVQDYIHQLGFIPKVPFVNLYPNANSQALDLLEQMLAFDPQKRITVDEALEHPYLSIWHDPADEPVCSEKFEFSFESVNDMEDLKQMVIQEVQDFRLFVRQPLLEEQRQLQLQQQQQQQQQQQQQQQQPSDVDNGNAAASEENYPKQMATSNSVAPQQESFGIHSQNLPRHDADFPPRPQESMMEMRPATGNTADIPPQNDNGTLLDLEKELEFGLDRKYF | – | – | no binding | binds | – |
| Recombinant Mlp1-His (plasmid pET15B-Mlp1-His) (protein, UniProt P36005 1-433) MATDTERCIFRAFGQDFILNKHFHLTGKIGRGSHSLICSSTYTESNEETHVAIRKIPNAFGNKLSCKRTLRELKLLRHLRGHPNIVWLFDTDIVFYPNGALNGVYLYEELMECDLSQIIRSEQRLEDAHFQSFIYQILCALKYIHSANVLHCDLKPKNLLVNSDCQLKICNFGLSCSYSENHKVNDGFIKGYITSIWYKAPEILLNYQECTKAVDIWSTGCILAELLGRKPMFEGKDYVDHLNHILQILGTPPEETLQEIASQKVYNYIFQFGNIPGRSFESILPGANPEALELLKKMLEFDPKKRITVEDALEHPYLSMWHDIDEEFSCQKTFRFEFEHIESMAELGNEVIKEVFDFRKVVRKHPISGDSPSSSLSLEDAIPQEVVQVHPSRKVLPSYSPEFSYVSQLPSLTTTQPYQNLMGISSNSFQGVN | – | – | no binding | binds | – |
| Pmk1-HA6H (enzyme, UniProt Q92398 1-422) MDRRHRVYRVFNQEMYVEPNFKVVKELGQGAYGIVCAARNVASKDQEAVAIKKITNVFSKSILTKRALREIKLLIHFRNHRNITCIYDLDIINPYNFNEVYIYEELMEADLNAIIKSGQPLTDAHFQSFIYQILCGLKYIHSANVIHRDLKPGNLLVNADCELKICDFGLARGCSENPEENPGFMTEYVATRWYRAPEIMLSFSSYHKGIDVWSVGCILAELLGGTPLFKGKDFVHQLNLILHQLGTPDEETLSHISSSRAQEYVRSLPKQRPIPFETNFPKANPLALDLLAKLLAFDPNRRISVDDALEHPYLAVWHDPSDEPVCDSVFDFSFEYIEDANELRRVILDEVLNFRQKVRRRSHPTNPTVNIPQPAQTVPSNDNGSFNVSSSSSSQTSNKKRHDHSYNETAAIDHKSDDNRHN | – | – | – | – | binding [5]: binds; binding [6]: no binding |
